According to the supplement of paper PMC11417369:
± gives the standard deviation of the averaged measurements. This is one part of the list.

What follows are sequences tested on PfAP2-EXP AP2 domain (GST-tagged) (assay: gcPBM binding intensity (ln(normalized median fluorescence intensity)); higher = stronger DNA binding).
Summary of the method: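 Using an Agilent 4 × 180k array, primer-extended double-stranded 36-bp intergenic genomic probes and negative controls were exposed for 1 h to GST-fused P. falciparum DNA-binding domains expressed in E. coli. Binding was carried out in 1× PBS with 1% milk, 0.2 mg/ml BSA, 0.5% salmon testes DNA and 0.03% Triton X-100, and protein was detected with Alexa488 anti-GST antibody and a 488 nm scan. Binding intensity is the highest Masliner-normalised natural-log median intensity across replicate spots of either probe orientation.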

Sequence	gcPBM binding intensity (ln)
AAAAAGAAAAAACTTACACACATATATACAGACATG [CACACA_site550]	8.51 ± 0.28
AACAAATAAATAAATAAAAAGCAAATATGTCTATAT [GTGCAC_negctrl_site414]	8.84 ± 0.48
ATAAAATAAGATCTTTTTTTTTTTTTTTTCTTTTCT [XGTACX_negctrl_site73]	8.14 ± 0.69
TGGTTAATATGTGAAAGTACATATTATATTAAAATG [XGTACX_site2636]	8.49 ± 0.34
TACAGATAATATATTGCACACGTCAGAATAATATAG [CACACA_site5036]	8.73 ± 0.33
TATAACTTTTTTATTACACACCTATGCAATATTATA [CACACA_site6570]	8.62 ± 0.47
TTTTTTTTTTTTTTTGCACACAGGGTGTAGGACAAG [CACACA_site2842]	8.6
ATATATATATTCCACACACACACAAAAAAAAAAAAA [CACACA_site3648]	9.07 ± 0.23
CATTTGATAAGATACACACACAAGGAAAAAAATAAA [CACACA_site350]	8.82 ± 0.57
TATAATAATATTAACACACGTACAAAAGCAAACAAC [CACACA_site3494]	9.46 ± 0.51
TTATAATATCTATATATCTTTTACATTTATAAGTTT [CACACA_negctrl_site1473]	8.34 ± 0.28
GTCTATTCAAAAAAGTGTACGGACATATAAACATAC [XGTACX_site6516]	9.04 ± 0.28
TTAGCTATGATATATACACACCAACGAACGAAGAAA [CACACA_site6657]	8.85 ± 0.54
TATGGTGTAATTTAGTGTATTATATTATTTTGGTTG [GTGCAC_negctrl_site445]	8.67 ± 0.14
TGCAGTCTGGAGAAAAGTACATAGTATCTGGTATCT [XGTACX_site2545]	8.49 ± 0.23
CTGTATTCATAATTCACACAAATGGTTTATATGAAT [CACACA_site4315]	8.5 ± 0.31
TATATATATATATACACACACACACCCATATATATA [CACACA_site2538]	10.2 ± 0.24
CATATTTGCACTTTCACACATAAATATATAACTATA [CACACA_site6016]	8.91 ± 0.31
CATACATACAGATATACACACATATATAATAATATA [CACACA_site5477]	8.62 ± 0.31
TTTTTATTTTTGTAGTGTACTTTATTTTTTTTGTTT [XGTACX_site8887]	8.71 ± 0.42
TTTAAACAAGGATCCACACACCCCAAAAAAAAAAGA [CACACA_site680]	9.24 ± 0.76
CAAAAGTATAATAATACACACACTTTAAAAGTTAAA [CACACA_site3343]	8.48 ± 0.37
AAAAATAAAATAAAATAAAATAAACATACCATATGT [CACACA_negctrl_site594]	8.55 ± 0.29

Sequence	gcPBM binding intensity (ln)
TAGATTCTTGAATAAGTGCAAAATATAATATTTATT	8.51 ± 0.29
TTACAAATGGTTTACACACACATAATTGTATCAATT [CACACA_site4167]	8.52 ± 0.36
TAATATATGAGAAATTGTACAGAAAGGAATATGCTT [XGTACX_site5300]	8.85 ± 0.45
ATATTATTGTAGAAATGTACATATATATATATATAT [XGTACX_site1882]	10.1 ± 0.29
AAGAAATATTTATACACACACACAAACATATATATA [CACACA_site1912]	8.77 ± 0.47
TATATATGTTCAATATGTACATATATATAAGTGTAT [XGTACX_site5157]	8.52 ± 0.4
AATACACAAATATATTGTACATATATATATATATAT [XGTACX_site2440]	9.85 ± 0.34
CATATATAAATATAAATATATATATATATATATATG [XGTACX_negctrl_site493]	8.4 ± 0.13
ACTTATTATTAATATTGTACTCTTGAAAATTGTGGA [XGTACX_site6315]	8.47 ± 0.13
ATATATATTTTTTAAACACACACATAAATATTTGTG [CACACA_site8936]	8.56 ± 0.47
TATATATATATATGTGCATGTTCCCCATGCTTCCAT [TGCATGCA_site366]	10.1 ± 0.38
AAAATTATAATAATATGTACTTAAAAAATTTATATA [XGTACX_site632]	8.16 ± 0.3
TATATGTATTTATATACACACATATTCTTTTGACAC [CACACA_site1206]	8.43 ± 0.37
AATATATATATATATAGTACATATTTTTATTCATTA [XGTACX_site2156]	8.32 ± 0.27
ATATATATATATATATGTACATATGTATATTTTTTT [XGTACX_site1299]	10.1 ± 0.3
TTCTTCAAGGAAAACACATGCGCATTTTCACCAATT [TGCATGCA_site11]	9.09 ± 0.29
AATTATTTACCCTATACACACAAAACACGCTAAAAA [CACACA_site1211]	8.79 ± 0.43
ATATTATAATAAATGTGTACATATTGTAGAAATATT [XGTACX_site8101]	8.7 ± 0.27
TATTATATATTAAATGCATGTAAAAATAATATTAAA [TGCATGCA_site643]	9.24 ± 0.44
ATTTTGTGCGCACACACATGCAAAAAGAAATATGAT [TGCATGCA_site261]	9.27 ± 0.15
AAAGAGAGTATCTAATGTACGTATGTATGTATATAT [XGTACX_site1780]	8.79 ± 0.33
TCACATACATGAAAATGTACTTTTATAATTCCATAA [XGTACX_site1836]	8.32 ± 0.33
